This is one part of the list.

Results on 22 molecules are retold here after article PMC12136788.

To fix the notation:
T1: UNK ZnF1-3 (human, UniProt Q9C0B0 31-174)
T1 sequence: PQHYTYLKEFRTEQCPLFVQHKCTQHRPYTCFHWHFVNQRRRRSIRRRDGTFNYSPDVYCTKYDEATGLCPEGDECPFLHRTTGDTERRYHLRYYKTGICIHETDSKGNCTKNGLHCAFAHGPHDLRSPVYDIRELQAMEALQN

B1: chr15:98867917:98867918:+_ENSMUSG00000043091_ENSMUST00000058914|mus_hu|FALSE|FALSE (ssRNA)
RNA: GGGAGUUCUACAGUCCGACGAUCAGGGUCACAUUUCACCAUCUGGUUGGCUGGCUCAAAGCAAGCAUUGGUGAUCUCUGCUACAGUAAGCUGUUCGUGGUAGGCUUUCUCAGCAGAGAUGACAGGGGCAUAUGUGGCCAGAGGCAACAGAGGAUUGAGCAUCA
B2: chr12:42180722:42180723:-_ENSMUSG00000036295_ENSMUST00000043884|mus_hu|mus_mus_mus_hu_True|58_68 (ssRNA)
RNA: GGGAGUUCUACAGUCCGACGAUCCUGUAGGAGAAGAAUCUGUGUGUUAGCUGGCAAUCUGGCUGGGAAGUUUAAAAGCCCUAAAUCAUUACAAUCCACUGUAGAUGCUUCCAUAUAAAUGGAUCUGGGUGUAAACCAAGGCCUCAACAGAGGAUUGAGCAUCA
B3: 100120078_100120198_104_5pUTR_ENSG00000154174_ENST00000284320|human|control|control (ssRNA)
RNA: GGGAGUUCUACAGUCCGACGAUCCCUUUUUCUUUCUUUUCGCCCCGCUGCUGUUCGGGAGAUGGACUUCUGGAGUCCCCGUCGUAGCUGGUGUUGUCCCCUCUACCUUCAGGAAAGAAGGGCAGAUGGCCCUCUUGCCUACUGCAACAGAGGAUUGAGCAUCA
B4: chr3:176767854:176767855:-_ENSG00000177565_ENST00000430069|hu_hu|hu_hu_hu_mus_False|38_38 (ssRNA)
RNA: GGGAGUUCUACAGUCCGACGAUCGACAUCCUUGUUACUGGGCACGUCCUGCCCUCCUUCCCGUAUGCAGUGUCUAAGCACGAGCUGCGUAGGGCCACUGGUGCUGUUCUCACUGAGGUUCCAGAUUCUUGCCGUGGAGUCUCCCAACAGAGGAUUGAGCAUCA
B5: chr1:39494447:39494448:+_ENSG00000168653_ENST00000372967|hu_mus|hu_hu_hu_mus_False|1_28 (ssRNA)
RNA: GGGAGUUCUACAGUCCGACGAUCGCACCGAGCGGCGUUCUUAUAGGGCUGUUCUGCGCUUAGGAACAUAAAGUGCCGGUCCAGGCUGAUGCCCAGCUUUUUCUGUAUGUCCAAGAAAGGCAUGGCUCUGCAGUGCCCCCUUGACAACAGAGGAUUGAGCAUCA
B6: chr12:39763582:39763583:-_ENSG00000139116_ENST00000544797|hu_mus|hu_hu_hu_mus_False|18_108 (ssRNA)
RNA: GGGAGUUCUACAGUCCGACGAUCCUCUAAGAAUUGGGCAUUCACUUUGAAUUCAGGAGGGGGCAGCCCGUUUUUAAUCGCUGAGGUCUUUUUCUCAUCAAUACUCUUGAACAGGUGUUUAACAGCUCGAGAGAUGAUGCCCUGCAACAGAGGAUUGAGCAUCA
B7: chr5:145543945:145543946:-_ENSG00000133706_ENST00000545646|hu_hu|hu_hu_hu_mus_True|78_98 (ssRNA)
RNA: GGGAGUUCUACAGUCCGACGAUCCUGAACGGCCAGUGGCGGGAAAUAAUCAAGCCAAUGUUCUGCUUCAGAAAACUUCACUAUGUCGUCAUCAGAGAGCCCAAGGGAUUUCAUAAUGUCCCACUGGUACUUAGAAGAUCCUGCCAACAGAGGAUUGAGCAUCA
B8: chr9:78015909:78015910:+_ENSMUSG00000009828_ENSMUST00000044551|mus_mus|FALSE|FALSE (ssRNA)
RNA: GGGAGUUCUACAGUCCGACGAUCUAAAUUAUCUUGUAUCCCACUGUCUUAAACUGCACCCUGUCACAAUACUGAAUCAAUAUUAUUACAUAUUUCAAAAUCUGUAUAAAAUAUUACAUGGAACAAUGAACAAAAAAUCACUUACAACAGAGGAUUGAGCAUCA
B9: chr7:3571038:3571039:+_ENSMUSG00000035674_ENSMUST00000076657|mus_mus|motif|central (ssRNA)
RNA: GGGAGUUCUACAGUCCGACGAUCUGGGUAGUUGUAGGGUGUGGCCUUGUUGAUCAUGCUAGCAUACUUGGUGUAGGGGCGGAUCAUGGGCAUAAUUAUAGCGAGGCCCCAGACAGAGAAGGACACCACCAGCACCGGCUCCUUCAACAGAGGAUUGAGCAUCA
B10: chr11:70781491:70781492:-_ENSMUSG00000040667_ENSMUST00000108530|mus_mus|motif|central (ssRNA)
RNA: GGGAGUUCUACAGUCCGACGAUCCUUCCCCCACCUCUGAGGUAAUUCUAAUGCCAUAAGUCCUUUACUUCCGAUAAGUGCGGCAUGAUGUUGGGUUGGACUCAACAAGACUUGAUGGAUUUCAAACAAGGGUGGAUUAAUGCACAACAGAGGAUUGAGCAUCA
B11: chr15:73134924:73134925:-_ENSMUSG00000022607_ENSMUST00000110036|mus_hu|motif|central (ssRNA)
RNA: GGGAGUUCUACAGUCCGACGAUCAUCAAAUCUGUAGACUGGAGACAGGAUCUCAAAGAAUUUCAGAAUACUUUCUUCUCGGUUAAGGUUGGCAAAUUGUCUAAAUGUUUGUUGGAUCAGUUUUCUUAGUGUUUUGGCCUUGACCAACAGAGGAUUGAGCAUCA
B12: 35972796_35972916_658_3pUTR_ENSMUSG00000001525_ENSMUST00000001566|mouse|control|control (ssRNA)
RNA: GGGAGUUCUACAGUCCGACGAUCGAUCUUGCUGAUGAGCAGGGUGCCCAUGCCAGAGCCAGUGCCUCCACCCAGUGAGUGGGUCAGCUGAAAGCCUUGCAGGCAAUCACAGCUCUCCGCCUCCUUCCGCACCACAUCCAAGACCAACAGAGGAUUGAGCAUCA
B13: chr3:95127578:95127579:-_ENSMUSG00000015697_ENSMUST00000107170|mus_mus|FALSE|FALSE (ssRNA)
RNA: GGGAGUUCUACAGUCCGACGAUCGGUUAUGUAACAUUUUUAGUUAAAAAUUACACAGGGCAAAUAAAAUCGAGGUAUAAACUAAUGAUAGUUGCCCACUGGGAAAUGACAUGGAAGAUCAAGGCAGGAGAUAAGACAAACCACCAACAGAGGAUUGAGCAUCA
B14: chr2:109738910:109738911:+_ENSMUSG00000027162_ENSMUST00000028583|mus_hu|FALSE|FALSE (ssRNA)
RNA: GGGAGUUCUACAGUCCGACGAUCUUGAAAACUGGAAUAAUCAUCUGAGACUCACAGUGAUCACAAACAUGCAGAAAAAAGCAUACAAUUCUAUUCUUCCUGAAGGAAUGUUACAAAAUGCCCACUUUUUUAUAUAGGGUCAAUCAACAGAGGAUUGAGCAUCA
B15: chr16:94664741:94664742:+_ENSMUSG00000040785_ENSMUST00000117648|mus_hu|mus_mus_mus_hu_False|1_88 (ssRNA)
RNA: GGGAGUUCUACAGUCCGACGAUCUGGUACUGAUCUUGGUAGCUGAUACUCAGAAGAAAGGCUGGCCAAGGGUGUAUAUAUGCUGGUGUACUGGGGCAAACCUGGUAACACGUUUAUGUAUGCUGGCGGUGUCUGGGUGCCAAACAACAGAGGAUUGAGCAUCA
B16: chr6:13820011:13820012:-_ENSMUSG00000052419_ENSMUST00000155856|mus_mus|motif|central (ssRNA)
RNA: GGGAGUUCUACAGUCCGACGAUCGUUUAGUACAUUUUUAUUAAACUUUUUCUCAGAGAUAAAAGUUUUUGGCUAAGAUCGGAGUACAAUAUCAACUUGCGAGAUAAAAACAGAAGCAUUAAAAAAAAAGAAAACCAGUAACAACAACAGAGGAUUGAGCAUCA
B17: chr9:78326885:78326886:-_ENSMUSG00000037742_ENSMUST00000042235|mus_hu|FALSE|FALSE (ssRNA)
RNA: GGGAGUUCUACAGUCCGACGAUCCAGCUUUUUACCAGAACGGCGAUCAAUCUUUUCCUUCAGCUCAGCAAACUUGCAUGCAAUGUGAGCCGUGUGGCAAUCCAAUACAGGGGCAUAGCCGGCGCUUAUUUGGCCUGGAUGGUUCAACAGAGGAUUGAGCAUCA
B18: 27733538_27733658_2797_3pUTR_ENSG00000158195_ENST00000430629|human|control|control (ssRNA)
RNA: GGGAGUUCUACAGUCCGACGAUCAAGAAUGACAAGAGAGGCUAUGAAGGUCUGAGCAGCACCGACAGGGCUGGCACAGACCCUGAGCCUUCCUACUGGGACCCCAACCUAUGGUGAGGUCUGGAGUAGCAAUACAACUGAGAACAACAGAGGAUUGAGCAUCA
B19: chr5:71494580:71494581:+_ENSG00000131711_ENST00000296755|hu_mus|FALSE|FALSE (ssRNA)
RNA: GGGAGUUCUACAGUCCGACGAUCAGAGGAGGCUUGGUGAGCUGCUGCAGUCUCUUUAGCUGCAGAGGUAGAAUCUGAAAAGCCAGGUGAAUAUAAAGGUGAGGACUCUCGUGGGGUGAGUGGAGAAAUAUCAGAUUUCGGAGACAACAGAGGAUUGAGCAUCA
B20: 40065941_40068717_428_CDS_ENSG00000131473_ENST00000352035|human|control|control (ssRNA)
RNA: GGGAGUUCUACAGUCCGACGAUCGAACUCCUCAGCCUGACUGUGGGGGACGAAGGGCUCGAUCAGAAAGUUCUUGAGGAAGCCUGUGGCCUUGCCAACUGUGGCUUCCUGUCCCAGCCGUGGCUUCAGCCAGGACUUGACCCCCAACAGAGGAUUGAGCAUCA
B21: chr5:141096593:141096594:-_ENSMUSG00000036565_ENSMUST00000042661|mus_hu|FALSE|FALSE (ssRNA)
RNA: GGGAGUUCUACAGUCCGACGAUCUUUUUAAAAUUUAUUUUAAAACAUGAAACCCAAGCUGAAUAGAAACCACAGAAAUUACAUUGACGAGAUUUUUAGUAUUUGCCAAGAAAAAAAGCCCCCAAAGAAAUAAAAAUCAGCCCCCAACAGAGGAUUGAGCAUCA
B22: chr5:33459820:33459821:+_ENSG00000113407_ENST00000502553|hu_mus|motif|central (ssRNA)
RNA: GGGAGUUCUACAGUCCGACGAUCCCAGAGCCGGCUAUUGAAGAUGUUGGGAGUGACGACCUCCUGGAACCCUCUUUUCCGGUAUUCACUCCUGAUAAAUUCCAUUAGUGUAUUAUAAAUGUAGGCUCCUUUGGGCAGGAAAAACAACAGAGGAUUGAGCAUCA

The assay concerns the target T1, UNK ZnF1-3. The assay can be described thus: nsRBNS (natural sequence RNA bind-n-seq); RBNS binding buffer (assumed for nsRBNS): 25 mM Tris pH 7.5, 150 mM KCl, 3 mM MgCl2, 0.01% Triton X-100, 500 ug/ml BSA, 20 U/ml SUPERase-In, 4 C; UNK is unkempt and MSI1 is Musashi-1; names of the RNAs are library labels; protein concentration not given here; high values mean tight binding.
Molecule B1 had a binding signal of 0.819 enrichment R.

In turn, B2 gave a binding signal of 1.18 enrichment R.

B3 displayed a binding signal of 0.636 enrichment R.

B4 displayed a binding signal of 0.503 enrichment R. Molecule B5 gave a binding signal of 0.804 enrichment R.

Turning to B6, the binding signal was 1.6 enrichment R. On to B7, for which the binding signal amounted to 1.37 enrichment R.

As for B8, the binding signal was 2.04 enrichment R. Molecule B9 gave a binding signal of 1.16 enrichment R. The value for B10 was 1.03 enrichment R; that for B11 was 1.56 enrichment R; that for B12 was 1.38 enrichment R. As for B13, the figure is 1.13 enrichment R; as for B14, 0.758 enrichment R. The value for B15 was 0.988 enrichment R; that for B16 was 1.23 enrichment R; that for B17 was 0.781 enrichment R. Regarding B18, the binding signal was determined as 0.383 enrichment R. B19 returned a binding signal of 2.2 enrichment R. As for B20, the figure is 0.297 enrichment R; as for B21, 2.7 enrichment R; as for B22, 1.27 enrichment R.
